Test results published in PubChem BioAssay AID1508623 (National Center for Advancing Translational Sciences (NCATS), 2021).
In all, about 48,000 compounds went through this assay and about 450 (0.94%) were called active. About 19% were inconclusive and are not listed. Calls follow the shape of the dose curve; as a rule, active = well fitted inhibition curve with a large enough effect; inconclusive = small, poorly fitted or top-dose-only effect; inactive = no such curve, though single readings can be large or run the other way. This is one part of the list.

Assay: Primary qHTS for Identification of Small Molecule Inhibitors of Huntingtin Promoter Activity; also: nearly all actives have a fitted effect of over 50% in size
Conditions: HEK293 HTT promoter firefly luciferase reporter (activity 0% = vehicle and -100% = no light), 24 h; series mostly up to 57.5 µM; activity change, negative = inhibition: at the top concentration
Method in brief: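 Quantitative HTS used concentration series of up to 57.5 uM final on HEK293 luciferase reporter cells, 24 h at 37 degrees C. Readout was Dual-Glo firefly luminescence.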

Activity change, negative = inhibition, inactive:
CCOc1ccccc1CNC(=O)c1cnc2sc(N3CCOCC3)nn2c1=O 0.496%
CCOc1ccc(CCNC(=O)Cn2ncc3c([nH]c4ccccc43)c2=O)cc1OCC 1.03%
OCCN1CCN(C(c2ccc(Cl)cc2Cl)c2sc3nc(-c4ccco4)nn3c2O)CC1 (centres undefined) 16.1%
CCc1nc2ccc(C(=O)NCc3ccc(SC)cc3)cc2nc1CC 15.8%
CCOc1ccc(-n2c(SCC(=O)Nc3ccc4c(c3)OCCO4)nc3c([nH]c4ccccc43)c2=O)cc1 -4.99%
Clc1ccccc1-c1nnc(-c2ccccc2CNc2ccc(Br)cc2)o1 27.7%
COc1ccc(-c2cc(OC(=O)c3ccccc3)c3c(C)oc(C)c3c(=O)c2)cc1OC -22.1%
CC(C)c1ccc2c(c1)NC(c1ccncc1)=NC(c1cccs1)=N2 0.984%
CCc1cccc(NC(=O)C(NS(=O)(=O)c2ccc3nc(C)sc3c2)C(C)C)c1 (centres undefined) -7.45%
CCOc1ccccc1NC(=O)CCc1c(C)nc2c(c(C)nn2-c2ccccc2)c1C 8.39%
C#CCSc1nc(-c2ccccc2)c2cc(Cl)ccc2n1 -16%
Cc1ccc(Cl)cc1N1CCN(C(=O)c2ccc3c(c2)N(Cc2ccccc2F)C(=O)c2ccccc2S3=O)CC1 (centres undefined) -14.7%
O=C(CCS(=O)(=O)c1cc(Br)cc2c1N(C(=O)C1CC1)CC2)Nc1ccc(F)cc1 -13.3%
Cc1ccc(CNC(=O)c2sc3nc(-c4ccccc4)cn3c2C)cc1 -27.5%
O=C(NCc1ccc(F)cc1)c1ccc(Cn2c(SCc3ccc(F)cc3)nc3cccnc32)cc1 -22%
CC(C)Cn1c(=O)c2ccccc2n2c(CCC(=O)NCc3ccc(Cl)cc3)nnc12 -8.13%
CCCN1C(=O)c2[nH]nc(-c3cccc(OC)c3)c2C1c1ccccn1 (centres undefined) -9.31%
CC(C)(C)NC(=O)[C@H]1CN(Cc2cccnc2)CCN1C[C@@H](O)C[C@@H](Cc1ccccc1)C(=O)N[C@H]1c2ccccc2C[C@H]1O -12.8%
Cn1nnc2c(NCc3ccccc3)ncnc21 -1.41%
Cc1cc(C)cc(-n2c(C)nc3cc(C(=O)NCc4ccc(F)cc4)ccc32)c1 -5.94%
CCC(C)NC(=O)c1ccc2c(c1)N(Cc1ccccc1F)C(=O)c1ccccc1S2=O (centres undefined) -9.82%
CCOc1ccc(CCNC(=O)c2cn(-c3cccc(OC)c3)c(=O)c3ccccc23)cc1 -7.7%
O=C(CCC(=O)N1CCSc2ccccc21)NCc1ccccc1Cl -21.2%
Cc1cccc(Nc2cc(Cl)nc(SCC(=O)O)n2)c1C -5.1%
CCCCn1c(=N)c(C(=O)NC2CCCCC2)cc2c(=O)n3cccc(C)c3nc21 -3.73% [at 11.5 µM]
Cn1c(=O)oc2cc(S(=O)(=O)NCCC(=O)NCc3ccc(F)cc3)ccc21 -3.98%
CC(CNS(=O)(=O)c1ccc2c(c1)CC(=O)N2C)c1ccccc1 (centres undefined) -13%
Cc1ccc(C(C)C)c(OCCCn2c(=O)oc3ccccc32)c1 -5.13%
CCOC(=O)c1c(C)oc2nc(C)nc(NCCCN3CCN(c4ccc(F)cc4)CC3)c12 -0.49%
COc1ccccc1NC(=O)c1ccc2oc(=O)c(S(=O)(=O)c3ccccc3)cc2c1 -4.65%
Cc1cc(N2CCN(c3cccc(C)c3C)CC2)n2nc(C)c(-c3ccc(Cl)cc3)c2n1 -9.53%
CCOc1ccc(C2c3c(oc4ccccc4c3=O)C(=O)N2c2nnc(C)s2)cc1OC (centres undefined) -12.3%
COc1ccc(-n2c(-c3ccco3)nc3c(cnn3-c3ccccc3C)c2=O)cc1 -16.3%
Cc1cccc(Cn2cnc3c(cnn3-c3ccc(Cl)cc3)c2=O)c1 -9.73%
Cc1cc(C)c2oc(C(=O)Nc3ccc(S(=O)(=O)N4CCC(C)CC4)cc3)cc(=O)c2c1 1.12%
Cc1ccc(CN2CCN(C3CCN(C(=O)Nc4ccccc4C(F)(F)F)CC3)C(=O)C2=O)cc1 -3.69%
Cc1cc(C)n2c(Nc3ccccc3)c(-c3ccccc3)nc2n1 -4.79%
CCn1c(=O)cc(OCC(=O)N2CCN(c3ccccc3OC)CC2)c2ccccc21 -1.54%
Cc1ccc(S(=O)(=O)n2nc(-c3ccco3)nc2NCc2ccccc2Cl)cc1 -2.38%
Cc1cccc(C)c1NC(=O)CCCN1C(=O)CCn2nc(-c3cn(C)c4ccccc34)cc21 3.71%
CC(NC(=O)c1ccc2c(c1)N(Cc1ccc(Cl)cc1)C(=O)c1ccccc1S2=O)c1ccccc1 (centres undefined) -20.9%
COc1ccc(Cl)cc1NC(=O)Cn1cnc2c1c(=O)n(C)c(=O)n2C -1.74%
CC(C)NC(=O)C1CCCN(c2ncnc3c2nc2n3CCCCC2)C1 (centres undefined) -71.6%
CCCN1CCN(c2cc3c(cc2F)c(=O)c(S(=O)(=O)c2ccc(Cl)cc2)cn3C)CC1 -18.9%
Cn1c(=O)n(C)c2cc(N3CCOCC3)c(NC(=O)c3c(F)cccc3F)cc21 6.75%
COc1ccc(C(=O)NCC(c2ccc(N(C)C)cc2)N2CCc3ccccc32)cc1 (centres undefined) -18%
CCc1cc2c(-c3ccccc3)cc(=O)oc2c2c1OCN(Cc1ccc(F)cc1)C2 -27.1%
COc1cc(OC)c(NC(=O)Nc2c(C)n(C)n(-c3ccccc3)c2=O)cc1Cl -22.1%
O=C(NC1CC(=O)N(c2cccc(F)c2)C1)C(c1ccccc1)c1ccccc1 (centres undefined) -5.24%
Cc1cn([C@@H]2C[C@@H](O)[C@H](CO)O2)c(=O)[nH]c1=O -0.212%
CCC1C(=O)OCC1Cc1cncn1C (centres undefined) 4.83%
CCC(Oc1ccccc1)C(=O)Nc1ccc(OCc2cc(=O)n3ccccc3n2)cc1 (centres undefined) 8.62%
CCOc1ccc(CNC(=O)C2Cc3ccccc3N2C(=O)CC)cc1 (centres undefined) -3.65%
CO[C@H]1C=CO[C@@]2(C)Oc3c(C)c(O)c4c(O)c(c5c(c4c3C2=O)NC2(CCN(CC(C)C)CC2)N=5)=NC(=O)C(C)=CC=C[C@H](C)[C@H](O)[C@@H](C)[C@@H](O)[C@@H](C)[C@H](OC(C)=O)[C@H]1C -15.2%
CCOC(=O)c1cc(NC(=O)c2ccc(Cl)cc2)c(=O)n2c1oc1ccccc12 -0.518%
NC(=O)c1ncn([C@@H]2O[C@H](CO)[C@@H](O)[C@H]2O)c1O 0.158%
O=C(Nc1ccc(Br)cc1)c1cccc(C(=O)Nc2ccc(Br)cc2)c1 -23.8%
O=S(=O)(c1ccc(Cl)cc1)c1nc(-c2ccccc2)oc1N1CCN(c2ccccc2)CC1 -17.6%
CCOc1ccc(C2CC(=O)c3c([nH]c(C(=O)OC4CCC(C)CC4)c3C)C2)cc1 (centres undefined) -5%
COc1ccccc1N1CCN(C(=O)CN2C(=O)COc3ccc(S(=O)(=O)N4CCCC4)cc32)CC1 -15.9%
CCc1nc(SCc2cc(=O)c3cc(C)ccc3[nH]2)n[nH]1 -1.03%
CCn1c(/C(C#N)=C/c2ccccc2Cl)nc2ccccc21 22.7%
Cc1ccc(CNC(=O)Cn2c(=O)n(Cc3ccccc3)c(=O)c3sc4ccccc4c32)cc1 -7.16%
Cc1cc2ccccc2n1CCNC(=O)c1cc(C(F)(F)F)cc(C(F)(F)F)c1 -24.4%
Cn1nnc2c(N3CCN(c4ccccc4)CC3)ncnc21 -1.31%
COCCn1c(SCC(=O)c2ccc(C)cc2C)nc2cc(C(=O)NC3CCCC3)ccc2c1=O -7.49%
CC(=O)Nc1ccc(S(=O)(=O)Nc2ccc([N+](=O)[O-])cc2)cc1 -1.44%
CC(C)COc1ccc(C2=NC(c3ccncc3)=Nc3ccc(F)cc3N2)cc1 0.482%
CC(C)c1ccc(NC(=O)c2cc(S(=O)(=O)N3CCCCC3)cn2C)cc1 -6.75%
COc1ccccc1CNc1nc2ccc(Cl)cc2n2cnnc12 -8.46%
CC(=O)c1c(C)oc2c(Br)cc(NS(=O)(=O)c3ccc(Br)cc3)cc12 -7.31%
Cc1ccccc1OC(=O)CSc1nnc(-c2ccc3c(c2)OCO3)o1 -22.6%
COC(=O)c1cc(NC(=O)c2nn(C)c3c2CSc2ccccc2-3)cc(C(=O)OC)c1 -12.2%
CCN(CC)CCNC(=O)c1ccc(CSc2nc3ccncc3n2Cc2cccc(F)c2)cc1 -2.65%
CCOc1ccc(-c2cc3c(=O)n(Cc4nc(-c5ccc(OC(C)C)cc5)oc4C)ccn3n2)cc1Cl -24.8%
CCCCN(CC)CCCNC(=O)Cn1ncc2c3ccccc3n(Cc3ccccc3F)c2c1=O 31.4%
O=C(Oc1ccccc1)c1cccc(C(=O)Oc2ccccc2)c1 37.4% [at 116 µM]
COc1cc(C2SC[C@H]3C(=O)N(c4ccccc4)C(=O)N23)cc(OC)c1OC (some centres undefined) -26.2%
Cc1ccccc1-c1nc(CN2CCC(C(=O)NCCc3ccccc3)CC2)c(C)o1 -4.39%
O=C(CCCn1c(=O)c2ccccc2n(CC(=O)Nc2cccc(C(F)(F)F)c2)c1=O)NCc1ccc2c(c1)OCO2 -14.5%
CC(=O)Nc1c(I)c(NC(C)=O)c(I)c(C(=O)O)c1I 10.3%
O=C(NCc1cccn1Cc1ccccc1)Nc1ccc(Br)cc1F -13.1%
COc1cccc(N2CCN(c3ncnc4c3c(-c3ccccc3)cn4-c3ccc(C)cc3)CC2)c1 -18.3%
CCCc1cc(=O)[nH]c2nnc(SCC(=O)Nc3ccc(OC)cc3)n12 -15.3%
O=C(Nc1ccccc1C(=O)OCc1cc(=O)n2ccsc2n1)c1ccc(Cl)cc1 3.83%
O=C(COCc1cc(-c2ccc(F)cc2)on1)Nc1cccc(Cl)c1Cl -1.15%
Cc1ccc(S(=O)(=O)c2nnn3c2nc(NC(C)c2ccccc2)c2sccc23)cc1 (centres undefined) 35%
CCOc1ccc(N2CC(NC(=O)c3ccc(S(=O)(=O)N4CCCC4)cc3)CC2=O)cc1 (centres undefined) -3.43%
Cc1ccc(S(=O)(=O)NC(=O)NC2CCCCC2)cc1 4.66%
COc1ccccc1CNC(=O)CCNS(=O)(=O)c1ccc2c(c1)CCCC(=O)N2 -12.2%
CCOC(=O)c1c(C)[nH]c(C)c1S(=O)(=O)NCC(=O)NCc1ccc(C)cc1 4.66%
CCN(CC)S(=O)(=O)c1ccc2c(c1)nc(CN(C)C(=O)Nc1ccc(Cl)cc1)n2C 6.63%
Cc1ccc(Cl)cc1NC(=O)Nc1nnc(N2CCCC(C)C2)s1 (centres undefined) 4.18%
CN(Cc1ccc(F)cc1)S(=O)(=O)c1nnc(NC(=O)c2ccccc2Br)s1 -32.3%
